# Measurements reported in the supplement of paper PMC8728848.
# This is one part of the list.
# Key:
# Test in all cases: glycan array binding signal (z-score within array); higher = stronger binding
# Settings in all cases: glycan notation: IUPAC condensed, linker removed
# [1] = target: Man(a1-2)Man(a1-3)[Man(a1-2)Man(a1-6)]Man(a1-6)[Man(a1-2)Man(a1-2)Man(a1-3)]Man
# Method in brief: (§1)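 From the Consortium for Functional Glycomics database, 3228 arrays were curated, keeping only those whose protein sequence was available. Binding is given as a within-array Z-score averaged across arrays sharing a protein sequence and across linkers. Negative Z-scores can be read as non-binding.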
# [2] = target: Man(a1-2)Man(a1-3)[Man(a1-2)Man(a1-6)]Man(a1-6)[Man(a1-2)Man(a1-2)Man(a1-3)]Man(b1-4)GlcNAc(b1-4)GlcNAc
# Method in brief: as §1
# [3] = target: Man(a1-2)Man(a1-3)[Man(a1-6)]Man(a1-6)[Man(a1-2)Man(a1-3)]Man(b1-4)GlcNAc(b1-4)GlcNAc
# Method in brief: as §1
# [4] = target: Man(a1-2)Man(a1-6)[Man(a1-3)]Man(a1-6)[Man(a1-2)Man(a1-2)Man(a1-3)]Man
# Method in brief: as §1
# [5] = target: Man(a1-2)Man(a1-6)[Man(a1-3)]Man(a1-6)[Man(a1-2)Man(a1-2)Man(a1-3)]Man(b1-4)GlcNAc(b1-4)GlcNAc
# Method in brief: as §1
# Man(a1-3)[Man(a1-6)]Man = target: Man(a1-3)[Man(a1-6)]Man
# Method in brief: as §1
# [6] = target: Man(a1-3)[Man(a1-6)]Man(a1-6)[Man(a1-2)Man(a1-3)]Man(b1-4)GlcNAc(b1-4)GlcNAc
# Method in brief: as §1
# [7] = target: Man(a1-3)[Man(a1-6)]Man(a1-6)[Man(a1-3)]Man
# Method in brief: as §1
# [8] = target: Man(a1-3)[Man(a1-6)]Man(a1-6)[Man(a1-3)]Man(b1-4)GlcNAc(b1-4)GlcNAc
# Method in brief: as §1
# [9] = target: Man(a1-3)[Man(a1-6)]Man(b1-4)GlcNAc(b1-4)GlcNAc
# Method in brief: as §1
# [10] = target: Man(a1-3)[Man(a1-6)]Man(b1-4)GlcNAc(b1-4)[Fuc(a1-6)]GlcNAc
# Method in brief: as §1
# Man(a1-6)Man = target: Man(a1-6)Man
# Method in brief: as §1
# Man(b1-4)GlcNAc = target: Man(b1-4)GlcNAc
# Method in brief: as §1
# MurNAc(b1-4)GlcNAc = target: MurNAc(b1-4)GlcNAc
# Method in brief: as §1
# Neu5Ac(a2-3)Gal = target: Neu5Ac(a2-3)Gal
# Method in brief: as §1
# [11] = target: Neu5Ac(a2-3)Gal(b1-3)GalNAc
# Method in brief: as §1
# [12] = target: Neu5Ac(a2-3)Gal(b1-3)GalNAc(b1-3)Gal(a1-4)Gal(b1-4)Glc
# Method in brief: as §1
# [13] = target: Neu5Ac(a2-3)Gal(b1-3)GalNAc(b1-4)[Neu5Ac(a2-3)]Gal(b1-4)Glc
# Method in brief: as §1
# [14] = target: Neu5Ac(a2-3)Gal(b1-3)GalNAc(b1-4)[Neu5Ac(a2-8)Neu5Ac(a2-3)]Gal(b1-4)Glc
# Method in brief: as §1
# [15] = target: Neu5Ac(a2-3)Gal(b1-3)GalNAc6S
# Method in brief: as §1
# [16] = target: Neu5Ac(a2-3)Gal(b1-3)GlcNAc
# Method in brief: as §1
# [17] = target: Neu5Ac(a2-3)Gal(b1-3)GlcNAc(b1-2)Man
# Method in brief: as §1
# [18] = target: Neu5Ac(a2-3)Gal(b1-3)GlcNAc(b1-2)Man(a1-3)[GlcNAc(b1-4)][Neu5Ac(a2-3)Gal(b1-3)GlcNAc(b1-2)Man(a1-6)]Man(b1-4)GlcNAc(b1-4)GlcNAc
# Method in brief: as §1
# [19] = target: Neu5Ac(a2-3)Gal(b1-3)GlcNAc(b1-2)Man(a1-3)[Neu5Ac(a2-3)Gal(b1-3)GlcNAc(b1-2)Man(a1-6)]Man(b1-4)GlcNAc(b1-4)GlcNAc
# Method in brief: as §1
# [20] = target: Neu5Ac(a2-3)Gal(b1-3)GlcNAc(b1-3)Gal(b1-3)GlcNAc
# Method in brief: as §1
# [21] = target: Neu5Ac(a2-3)Gal(b1-3)GlcNAc(b1-3)Gal(b1-4)GlcNAc
# Method in brief: as §1
# [22] = target: Neu5Ac(a2-3)Gal(b1-3)GlcNAc(b1-3)GalNAc
# Method in brief: as §1
# [23] = target: Neu5Ac(a2-3)Gal(b1-3)GlcNAc(b1-4)Gal(b1-4)Glc
# Method in brief: as §1
# [24] = target: Neu5Ac(a2-3)Gal(b1-3)GlcNAc(b1-6)GalNAc
# Method in brief: as §1
# [25] = target: Neu5Ac(a2-3)Gal(b1-3)GlcNAc6S
# Method in brief: as §1
# [26] = target: Neu5Ac(a2-3)Gal(b1-3)[Fuc(a1-4)]GlcNAc
# Method in brief: as §1
# [27] = target: Neu5Ac(a2-3)Gal(b1-3)[Fuc(a1-4)]GlcNAc(b1-3)Gal(b1-3)[Fuc(a1-4)]GlcNAc
# Method in brief: as §1
# [28] = target: Neu5Ac(a2-3)Gal(b1-3)[Fuc(a1-4)]GlcNAc(b1-3)Gal(b1-4)[Fuc(a1-3)]GlcNAc
# Method in brief: as §1
# [29] = target: Neu5Ac(a2-3)Gal(b1-3)[GlcNAc(b1-6)]GalNAc
# Method in brief: as §1
# [30] = target: Neu5Ac(a2-3)Gal(b1-3)[Neu5Ac(a2-6)]GalNAc
# Method in brief: as §1
# [31] = target: Neu5Ac(a2-3)Gal(b1-3)[Neu5Ac(a2-6)]GlcNAc(b1-3)[Fuc(a1-3)[Gal(b1-4)]GlcNAc(b1-6)]Gal(b1-4)Glc
# Method in brief: as §1
# [32] = target: Neu5Ac(a2-3)Gal(b1-3)]Neu5Ac(a2-3)Gal(b1-4)]GlcNAc
# Method in brief: as §1
binder,measurement,setting,value
Cohesin-marm-DC-ASGPR-CRD (protein) LDITSHHHHHHDDLDAVRIKVDTVNAKPGDTVRIPVRFSGIPSKGIANCDFVYSYDPNVLEIIEIEPGDIIVDPNPDKSFDTAVYPDRKIIVFLFAEDSGTGAYAITKDGVFATIVAKVKEGAPNGLSVIKFVEVGGFANNDLVEQKTQFFDGGVNVGDTTEPATPTTPVTTPTTTDDLDAASCPINWVEHQGSCYWFSRSGKTWPEAERYCQLENTHLVVINSREEQNFVQAHLGSAYTWMGLSDPEGVWKWVDGTDYSSGFQNWKPGQPDDWQGHGLGGGEDCAHFHPDGRWNDDVCQRSYHWVCEAGLTQASQDSH,glycan array binding signal (z-score),[1],-0.444
same,glycan array binding signal (z-score),[2],-0.353
same,glycan array binding signal (z-score),[3],-0.44
same,glycan array binding signal (z-score),[4],-0.416
same,glycan array binding signal (z-score),[5],-0.449
same,glycan array binding signal (z-score),Man(a1-3)[Man(a1-6)]Man,-0.423
same,glycan array binding signal (z-score),[6],-0.392
same,glycan array binding signal (z-score),[7],-0.365
same,glycan array binding signal (z-score),[8],-0.452
same,glycan array binding signal (z-score),[9],-0.451
same,glycan array binding signal (z-score),[10],-0.445
same,glycan array binding signal (z-score),Man(a1-6)Man,0.554
same,glycan array binding signal (z-score),Man(b1-4)GlcNAc,-0.422
same,glycan array binding signal (z-score),MurNAc(b1-4)GlcNAc,-0.439
same,glycan array binding signal (z-score),Neu5Ac(a2-3)Gal,-0.408
same,glycan array binding signal (z-score),[11],-0.428
same,glycan array binding signal (z-score),[12],-0.415
same,glycan array binding signal (z-score),[13],-0.433
same,glycan array binding signal (z-score),[14],-0.362
same,glycan array binding signal (z-score),[15],-0.363
same,glycan array binding signal (z-score),[16],-0.429
same,glycan array binding signal (z-score),[17],-0.344
same,glycan array binding signal (z-score),[18],-0.439
same,glycan array binding signal (z-score),[19],-0.376
same,glycan array binding signal (z-score),[20],-0.433
same,glycan array binding signal (z-score),[21],-0.449
same,glycan array binding signal (z-score),[22],-0.439
same,glycan array binding signal (z-score),[23],-0.449
same,glycan array binding signal (z-score),[24],2.55
same,glycan array binding signal (z-score),[25],-0.341
same,glycan array binding signal (z-score),[26],-0.426
same,glycan array binding signal (z-score),[27],0.142
same,glycan array binding signal (z-score),[28],-0.107
same,glycan array binding signal (z-score),[29],-0.455
same,glycan array binding signal (z-score),[30],-0.074
same,glycan array binding signal (z-score),[31],-0.447
same,glycan array binding signal (z-score),[32],-0.415
